The values below come from article PMC4336329 (PLoS ONE, 2015).

Screen size: about 310,000 compounds; about 2,200 (0.71%) showed an effect of 50% or more. Effects have a minus sign here. This is one part of the list.

Chain of human ether-à-go-go-related gene (hERG) potassium channel (Q12809 whole entry, looked up): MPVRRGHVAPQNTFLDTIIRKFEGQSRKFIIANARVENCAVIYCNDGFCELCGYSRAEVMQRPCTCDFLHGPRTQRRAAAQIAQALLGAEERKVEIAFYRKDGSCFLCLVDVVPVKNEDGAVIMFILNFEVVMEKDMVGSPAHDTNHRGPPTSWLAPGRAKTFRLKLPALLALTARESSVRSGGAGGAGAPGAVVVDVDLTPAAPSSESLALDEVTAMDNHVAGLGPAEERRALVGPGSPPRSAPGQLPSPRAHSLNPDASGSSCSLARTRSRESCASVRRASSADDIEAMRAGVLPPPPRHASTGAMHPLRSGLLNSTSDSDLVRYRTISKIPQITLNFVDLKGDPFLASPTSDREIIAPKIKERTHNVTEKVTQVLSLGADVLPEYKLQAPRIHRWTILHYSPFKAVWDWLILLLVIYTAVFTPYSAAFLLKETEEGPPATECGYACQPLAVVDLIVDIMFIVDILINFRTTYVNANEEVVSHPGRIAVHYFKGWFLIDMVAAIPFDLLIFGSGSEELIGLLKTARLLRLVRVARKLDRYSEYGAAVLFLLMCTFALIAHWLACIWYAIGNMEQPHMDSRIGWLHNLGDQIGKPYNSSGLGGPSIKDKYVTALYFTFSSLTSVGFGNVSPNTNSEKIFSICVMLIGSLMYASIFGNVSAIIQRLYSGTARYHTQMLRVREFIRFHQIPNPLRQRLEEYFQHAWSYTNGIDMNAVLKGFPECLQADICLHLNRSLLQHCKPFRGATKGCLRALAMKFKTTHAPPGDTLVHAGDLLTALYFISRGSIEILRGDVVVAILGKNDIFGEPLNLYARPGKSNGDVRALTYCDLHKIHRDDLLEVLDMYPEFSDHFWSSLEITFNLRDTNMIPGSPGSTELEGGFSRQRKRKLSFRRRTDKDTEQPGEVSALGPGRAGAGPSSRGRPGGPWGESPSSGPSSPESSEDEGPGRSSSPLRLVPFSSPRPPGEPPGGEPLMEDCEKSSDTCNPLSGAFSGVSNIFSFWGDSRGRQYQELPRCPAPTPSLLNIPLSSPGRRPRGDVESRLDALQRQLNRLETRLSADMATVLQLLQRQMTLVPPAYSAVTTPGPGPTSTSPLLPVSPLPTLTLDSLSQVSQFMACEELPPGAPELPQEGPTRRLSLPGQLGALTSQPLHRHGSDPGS

This experiment concerns the target human ether-à-go-go-related gene (hERG) potassium channel (human, UniProt Q12809). Kind of experiment: primary screen, population patch clamp on CHO cells stably expressing hERG.
As for `CCOC(=O)c1cnn(-c2ccccc2)c1-c1ccccc1`, the “hERG current change (%, negative = inhibition) at 1uM” value stood at 12.8%. The value for `CCCN(CC(=O)Nc1ccccc1C)C(=O)Cc1cccs1` was 6.04%; that for `COc1cccc(/C=C/c2ccccn2)c1O` was 0.0669%; that for `CN(C)N1C(N)=C(C#N)C(c2ccc(F)cc2)C2=C1CC(C)(C)CC2=O` (stereo not drawn) was 8.86%. In the case of `CC(C)(C)NC(=O)COC(=O)c1snc(C(=O)NC2CCCCC2)c1N` it was 4.4%; in that of `CCOc1ccc(N2C(=O)C(CC(=O)Nc3ccc(F)cc3)N(Cc3ccccn3)C2=S)cc1` (stereo not drawn), 6.65%. The value for `O=c1[nH][nH]c(-c2ccccc2)c1C=Nc1ccc(F)cc1F` was 7.62%; that for `CCOC(=O)c1cn2nc(Oc3ccc(NC(C)=O)cc3)ccc2n1` was 12.7%; that for `COC(=O)c1cc(NC(=O)/C=C/c2ccc3c(c2)OCO3)cc(C(=O)OC)c1` was -14.4%. With `COC(=O)c1c(C)[nH]c(C(=O)N2CCN(c3ccc(OC)cc3)CC2)c1C`, the “hERG current change (%, negative = inhibition) at 1uM” value came to 6.49%. Consider `CC(C)NC(=O)NC(=O)COc1ccc(Br)cc1Br`, for which the “hERG current change (%, negative = inhibition) at 1uM” value is 2.45%. Turning to `COc1ccc(-c2nc(C#N)c(NCC3CCCO3)o2)cc1` (stereo not drawn), the “hERG current change (%, negative = inhibition) at 1uM” value is on record as 4.71%.

Regarding `CC(C)C(=O)NCCc1c[nH]c2ccccc12`, the “hERG current change (%, negative = inhibition) at 1uM” value turned out to be 12.3%. Take `Cc1ccc(NC(=O)/C(CN(C)C)=N\O)cc1`: the “hERG current change (%, negative = inhibition) at 1uM” value stood at 5.44%. With `COc1ccc(CN2CC(C(=O)NCCN3CCOCC3)CC2=O)cc1` (stereo not drawn), the “hERG current change (%, negative = inhibition) at 1uM” value came to 4.44%. With `NCCN1CCN(CC(=O)N2c3ccccc3C(=O)Nc3cccnc32)CC1`, the “hERG current change (%, negative = inhibition) at 1uM” value is 15.1%. `NNC(=O)c1[nH]c2ccc(Br)cc2c1-c1ccccc1`: the “hERG current change (%, negative = inhibition) at 1uM” value amounted to 14.6%. For `CSCCC(NC(=O)c1ccco1)C(=O)N1CC(C)OC(C)C1` (stereo not drawn), the “hERG current change (%, negative = inhibition) at 1uM” value amounted to 5.26%.

As to `COc1ccc(NC(=S)NCc2ccc3c(c2)cc(C)n3C)cc1`, the “hERG current change (%, negative = inhibition) at 1uM” value is given as 10.7%. In the case of `NC(=O)CSc1nc2ccccc2n1Cc1ccccc1` it was 1.88%; in that of `CC(C)CC(NC(=O)C(NC(=O)C1CCC(=O)N1C(=O)OCc1ccccc1)C(C)C)C(=O)N1CCCC1C(N)=O` (stereo not drawn), 15.8%. With `O=C(C(Cc1ccccc1)n1cccc1)N1CCN(c2cccc(Cl)c2)CC1` (stereo not drawn), the “hERG current change (%, negative = inhibition) at 1uM” value is -6.42%.

For the compound `Cc1c(C(=O)OCC(=O)NCc2ccco2)oc2ccccc12`, the “hERG current change (%, negative = inhibition) at 1uM” value is 10.1%. As to `Cc1ccc(S(=O)(=O)N2c3ccccc3NC(=O)C2CC(=O)Nc2ccccc2)cc1` (stereo not drawn), the “hERG current change (%, negative = inhibition) at 1uM” value came out at 7.13%. With `Nc1ccc(C(=O)n2c3ccccc3c3ccccc32)cc1`, the “hERG current change (%, negative = inhibition) at 1uM” value is given as 7.66%. Consider `Oc1oc(-c2cccc3ccccc23)nc1/C=N/c1nccs1`, for which the “hERG current change (%, negative = inhibition) at 1uM” value is 5.22%. Take `O=C(CSc1nnc(-c2cccnc2)n1-c1ccc(SC(F)F)cc1)N1CCCc2ccccc21`: the “hERG current change (%, negative = inhibition) at 1uM” value was -1.92%.

As to `COc1ccc(S(=O)(=O)N2CCN(Cc3ccc4c(c3)OCO4)CC2)c2ccccc12`, the “hERG current change (%, negative = inhibition) at 1uM” value is on record as 10.3%. In the case of `O=C(CSc1nnc(CNC(=O)c2ccccc2F)o1)NC1CCCC1`, the “hERG current change (%, negative = inhibition) at 1uM” value is on record as 17.7%. In the case of `Cc1ccc(S(=O)(=O)N(C)c2ccc(OCC(=O)Nc3cccc(-n4cnnn4)c3C)cc2)cc1` it was -3.97%; in that of `COc1ccc(OC)c2[nH]c(=O)c(CCNS(=O)(=O)c3ccc(Cl)cc3)cc12`, 9.11%. Turning to `Cl.Fc1ccc(Nc2nc(N3CCOCC3)nc(N3CCOCC3)n2)cc1Cl`, the “hERG current change (%, negative = inhibition) at 1uM” value came out at 11%.

Regarding `O=C(OCC(=O)N1CCC(c2ccccc2)=N1)c1ccc([N+](=O)[O-])s1`, the “hERG current change (%, negative = inhibition) at 1uM” value is reported as 5.2%.

`Cc1cc(N2CCCCC2)nc2c(C)cccc12`: the “hERG current change (%, negative = inhibition) at 1uM” value turned out to be 11.3%.

For `O=C(Nc1ccc(NC(=O)c2ccco2)c(Cl)c1)c1ccccc1`, the “hERG current change (%, negative = inhibition) at 1uM” value is recorded as 0.179%. Turning to `CCCNC(=S)N1CCC(n2cnc3ccccc32)CC1`, the “hERG current change (%, negative = inhibition) at 1uM” value is -2.36%. Take `Br.Fc1cccc(CNCc2ccc3c(c2)OCO3)c1`: the “hERG current change (%, negative = inhibition) at 1uM” value was 7.01%. For the compound `CCCc1nc2c(=O)n(C)c(=O)[nH]c2n1C`, the “hERG current change (%, negative = inhibition) at 1uM” value worked out at 5.31%. The value for `CCC(C)N(C(=O)COc1ccccc1C#N)C1CCS(=O)(=O)C1` (stereo not drawn) was 6.64%; that for `CCOc1ccc(NC(=O)CCNC(=O)c2ccco2)cc1` was 18%. The value for `O=C(CSc1ccc(F)cc1)NCC1(N2CCOCC2)CCCCC1` was 1.4%; that for `O=C(CN(CC1CCCO1)C(=O)CNS(=O)(=O)c1ccc(F)cc1)NC1CCCCC1` (stereo not drawn) was 4.21%. Regarding `COc1ccccc1CCNC(=O)CSc1nnc2ccc(-c3cccnc3)nn12`, the “hERG current change (%, negative = inhibition) at 1uM” value is reported as -8.93%. The value for `O=C(CN1CCOCC1)NNC(=O)c1ccc([N+](=O)[O-])cc1` was 4.43%; that for `COc1ccccc1Nc1cc(C)nc2c(C)ccc([N+](=O)[O-])c12` was 10.9%.

In the case of `CC(C)Oc1ccc(C(CCN)C2CCCCC2)cc1.O=C(O)C(=O)O` (stereo not drawn), the “hERG current change (%, negative = inhibition) at 1uM” value came to 11%.

For the compound `Cc1ccc(C(=O)/C=C/Nc2ccc3c(c2)OCO3)cc1`, the “hERG current change (%, negative = inhibition) at 1uM” value stood at 11.8%. As to `CCOc1ccccc1N(CC(=O)NCCOC)C(=O)CCC(=O)Nc1ccccn1`, the “hERG current change (%, negative = inhibition) at 1uM” value was determined as 6.25%. `Cc1cc2ncn(-c3ncnc4scc(-c5ccccc5)c34)c2cc1C`: the “hERG current change (%, negative = inhibition) at 1uM” value was 7.63%. In the case of `C=CCN(C(=O)Cn1c(C(=O)OC)cc2oc(C)cc21)c1ccccc1` it was 1.04%; in that of `CCCCCCn1c(O)c(C=Nc2ccccc2N2CCOCC2)c(=O)[nH]c1=S`, 12.5%; in that of `Cc1ccccc1N(C(=O)CNC(=O)c1ccco1)C(C(=O)NC1CCCC1)c1ccncc1` (stereo not drawn), 8.55%. On to `COc1ccc(/C=N/NC(=O)c2ccc(CSc3nc(C)cc(C)n3)cc2)cc1O`, for which the “hERG current change (%, negative = inhibition) at 1uM” value worked out at 2.4%. The value for `O=C(CNC(=O)c1ccco1)Nc1ccc(S(=O)(=O)N2CCCC2)cc1` was 9.96%. As to `CC(=O)Nc1ccc2oc(-c3ccccc3Br)nc2c1`, the “hERG current change (%, negative = inhibition) at 1uM” value stood at 2.91%.

In the case of `CCOC(=O)c1cc(-c2csc(-c3ccc(C(F)(F)F)cc3)n2)on1`, the “hERG current change (%, negative = inhibition) at 1uM” value came to 12.4%. `O=C(Nc1ccccc1)c1cc([N+](=O)[O-])ccc1NC1CCCCC1`: the “hERG current change (%, negative = inhibition) at 1uM” value was found to be 9.27%.
